Reference: the RNAGym collection of RNA variant scans (doi:10.1093/nar/gkz1192)
Read counts are not given, so values of variants with three or more changes are uncertain.

B1: CPEB3 Ribozyme (parent)
chain: UAACAGGGGGCCACAGCAGAAGCGUUCACGUCGCAGCCCCUGUCAGAUUCUGGUGAAUCUGCGAAUUCUGCUGUAUAUCUC

Variants of: B1
Experiment: self-cleavage, relative activity (ratio to wild type); higher = more cleavage; in vitro, sequencing
Summary of the method: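 CPEB3 self-cleaving ribozyme mutant libraries were made by rounds of error-prone PCR, barcoded, and transcribed in vitro with T7 RNA polymerase for 5 hours at 37°C. Cleavage occurred during transcription and a 15 min DNase I step before EDTA stop. RNAs were reverse transcribed with template switching and Illumina-sequenced, with DNA sequencing mapping barcodes to variants. Relative activity is the variant's cleaved/total read fraction divided by wild type's (minimum 5 reads), averaged across three batches.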
Variant UAACAGGGGGCCACAGCAGGAGCGUUCACGUCGCAGACCCUGACAGACUCUGGUGAAUCUGCGUAUUCUGCUGUAUAUCUC has a self-cleavage of 0.06.
Variant UAACAGGGGGCCACAGCAGGAGCGUUCACGUCGCAGGCCCAGUCAGAUUCUGGUGAAUCUGCGAAUUCUGCCGCAUAUCUC has a self-cleavage of 0.08.
UAACAGGGGGCCACAGCAGGAGCGUUCACGUCGCAGUCCCUGUCAGAUUCUGGUGAGUCUGCGAAUUCUGCUGUAUAUCUC showed a self-cleavage of 0.29.
UAACAGGGGGCCACAGCAGGAGCGUUCACGUCGCAGUCCCCGUCAGUUUCUGGUGAAUCUGCGAAUCCUGCUGUAUAUCUC gave a self-cleavage of 0.48.
In the case of UAACAGGGGGCCACAGCAGGAGCGUUCACGUCGCAGUCCCUGUCAGAUUCUGGUGAACCUGCGGAUUCCGCCGUAUAUCUC, the self-cleavage is reported as 0.06.
Variant UAACAGGGGGCCACAGCAGGAGCGUUCACGUCGCAGUCCCUGUCAGAUUCUGGUGAAUCUGCGAAUACUGCUGUAUAUCUC has a self-cleavage of 0.26.
UAACAGGGGGCCACAGCAGGAGCGUUCACGUCGCAGCACCUGUCAGAUUCUGGUGAAUCUGCGAUUUCUGCUGCAUAUCUC gave a self-cleavage of 0.16.
UAACAGGGGGCCACAGCAGGAGCGUUCACGUCGCAGCGCCUGUCAGACUCUGGUGAAUCCGCGAGUUCUGCUGUAUAUCUC showed a self-cleavage of 0.29.
For UAACAGGGGGCCACAGCAGGAGCGUUCACGUCGCAGCUCCUGUCAGAUUCUGGUGUAUCUGCGAAUUCUGCCGUAUAUCUC, the self-cleavage was 0.08.
Work on UAACAGGGGGCCACAGCAGGAGCGUUCACGUCGCAGCUCCUGCCAGAUUCUGGUGAAUCUGCGAAUUCUGCUGUAUAUCUC yielded a self-cleavage of 0.16.
For UAACAGGGGGCCACAGCAGGAGCGUUCACGUCGCAGCUCCUGCCAGACUCUGGUGAAUCUGCGAAUUCUGCUGUAUAUCUC, the self-cleavage was 0.06.
For UAACAGGGGGCCACAGCAGGAGCGUUCACGUCGCAGCUCCUGCCAGAUUCUGGGGAAUCUGCGAAUUCUGCUAUAUAUCUC, the self-cleavage was 0.07.
In the case of UAACAGGGGGCCACAGCAGGAGCGUUCACGUCGCAGCUCCUGUCAGAUUCCGGUGAAUCUGCGAAUUCUGCUGUAUACCUC, the self-cleavage is reported as 0.29.
Variant UAACAGGGGGCCACAGCAGGAGCGUUCACGUCGCAGCUCCUGUCAGAUUCGGGUGAAUCUGCGAAUUCUGCUGUAUAUCUC has a self-cleavage of 0.17.
For UAACAGGGGGCCACAGCAGGAGCGUUCACGUCGCAGCUCCUGUCAGAUUCGGGUGAAUCUGCGAAUUCUGCAGUAUAUCUC, the self-cleavage was 0.28.
For UAACAGGGGGCCACAGCAGGAGCGUUCACGUCGCAGCUCCUGUCAGAUUCUGGCGAAUCUGCGAAUUCUGCGGUAUAUCUC, the self-cleavage was 0.08.
In the case of UAACAGGGGGCCACAGCAGGAGCGUUCACGUCGCAGCUCCUGUCAGAUUCUGGUGAAUCUGCGAAUUCUGCUGUAUAUCCC, the self-cleavage is reported as 0.31.
Variant UAACAGGGGGCCACAGCAGGAGCGUUCACGUCGCAGCCACUGUCGGAUUCUGGUGAAUCUGCGAAUACCACUGUAUAUCCC has a self-cleavage of 0.12.
Variant UAACAGGGGGCCACAGCAGGAGCGUUCACGUCGCAGCCACUGUCGGAUUCUGGUGAAUCUGCGAAUUCCGCUGUAUAUCCC has a self-cleavage of 0.15.
In the case of UAACAGGGGGCCACAGCAGGAGCGUUCACGUCGCAGCCACUGUCAGAUUCAGGUGAAUCUGCGAAUCCUGCUGUAUAUUUC, the self-cleavage is reported as 0.15.
With UAACAGGGGGCCACAGCAGGAGCGUUCACGUCGCAGCCUCAGUCAGAUUCUGGUGAAUCUGCGAGUUCUGCUGUAUAUCUC the self-cleavage was 0.08.
Work on UAACAGGGGGCCACAGCAGGAGCGUUCACGUCGCAGCCUCUGCCAGAUUCUGGUGAAUCUGCGAAUUCUGCUGUAUAUCUC yielded a self-cleavage of 0.35.
UAACAGGGGGCCACAGCAGGAGCGUUCACGUCGCAGCCUCUGUCAGAUCCUGGUGAAUCUGCGAAUUCUGCUGUAUAUCUC gave a self-cleavage of 0.09.
For UAACAGGGGGCCACAGCAGGAGCGUUCACGUCGCAGCCCAUGUCAGAUCCUGGUGUAUCUGCGAAUUCUGCUGUAUGUCUC, the self-cleavage was 0.1.
With UAACAGGGGGCCACAGCAGGAGCGUUCACGUCGCAGCCCAUGUCAGAUUCGGGUGAAUCUGCGAGUUCUGCAGUAUAUCUC the self-cleavage was 0.08.
UAACAGGGGGCCACAGCAGGAGCGUUCACGUCGCAGCCCAUGUCAGAUUCGGGUGAAUCUGCGAAUUCUGCAGUAUAUCUC gave a self-cleavage of 0.13.
In the case of UAACAGGGGGCCACAGCAGGAGCGUUCACGUCGCAGCCCAUGUCAGAUUCUGGCGAAUCUGCGAAUUCUGCCGUAAAUCUC, the self-cleavage is reported as 0.07.
For UAACAGGGGGCCACAGCAGGAGCGUUCACGUCGCAGCCCAUGUCAGAUUCUGGUGAAUCUGCGAAUCCUGCAGUAUAUCUC, the self-cleavage was 0.23.
UAACAGGGGGCCACAGCAGGAGCGUUCACGUCGCAGCCCUUGUCGGAUUCUGGUGAAUCUGCGAAUUCUGCAGUAUACCCC gave a self-cleavage of 0.2.
UAACAGGGGGCCACAGCAGGAGCGUUCACGUCGCAGCCCUUGUCAGAUUCUGGUGAAUCUGCGAAUUCUGGAGUAUAUCUC showed a self-cleavage of 0.08.
UAACAGGGGGCCACAGCAGGAGCGUUCACGUCGCAGCCCUUGUCAGAUUCUGGUAGAUCUGCGAAUUCUGCUGUAUAUCUC showed a self-cleavage of 0.4.
With UAACAGGGGGCCACAGCAGGAGCGUUCACGUCGCAGCCCUUGUCAGAUACCGGCGAAUCUGCGAAUUCUGCUGUAUAUCUC the self-cleavage was 0.18.
Variant UAACAGGGGGCCACAGCAGGAGCGUUCACGUCGCAGCCCUUGUCAGAUUCUGGUGAAUCUGCGAAUUCAGCUGUAUAUCUC has a self-cleavage of 0.24.
In the case of UAACAGGGGGCCACAGCAGGAGCGUUCACGUCGCAGCCCCUGUGAGAUCCUGGUGAAUCGGCGAAUUCUGCUGUAUAUCUC, the self-cleavage is reported as 0.05.
